# Laboratory results: PMC4970744
# The chains behind the UniProt entries cited, without tags or fusion partners.
# UniProt P03126: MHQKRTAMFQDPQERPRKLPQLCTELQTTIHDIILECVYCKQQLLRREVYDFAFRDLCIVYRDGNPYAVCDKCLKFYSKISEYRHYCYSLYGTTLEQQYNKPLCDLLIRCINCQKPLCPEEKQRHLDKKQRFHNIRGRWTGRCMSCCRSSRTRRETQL
# UniProt P06463: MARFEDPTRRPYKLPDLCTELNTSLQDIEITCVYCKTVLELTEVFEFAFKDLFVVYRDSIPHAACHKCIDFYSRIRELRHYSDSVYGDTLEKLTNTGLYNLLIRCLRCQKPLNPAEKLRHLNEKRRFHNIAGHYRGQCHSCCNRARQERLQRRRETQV
# UniProt Q07157: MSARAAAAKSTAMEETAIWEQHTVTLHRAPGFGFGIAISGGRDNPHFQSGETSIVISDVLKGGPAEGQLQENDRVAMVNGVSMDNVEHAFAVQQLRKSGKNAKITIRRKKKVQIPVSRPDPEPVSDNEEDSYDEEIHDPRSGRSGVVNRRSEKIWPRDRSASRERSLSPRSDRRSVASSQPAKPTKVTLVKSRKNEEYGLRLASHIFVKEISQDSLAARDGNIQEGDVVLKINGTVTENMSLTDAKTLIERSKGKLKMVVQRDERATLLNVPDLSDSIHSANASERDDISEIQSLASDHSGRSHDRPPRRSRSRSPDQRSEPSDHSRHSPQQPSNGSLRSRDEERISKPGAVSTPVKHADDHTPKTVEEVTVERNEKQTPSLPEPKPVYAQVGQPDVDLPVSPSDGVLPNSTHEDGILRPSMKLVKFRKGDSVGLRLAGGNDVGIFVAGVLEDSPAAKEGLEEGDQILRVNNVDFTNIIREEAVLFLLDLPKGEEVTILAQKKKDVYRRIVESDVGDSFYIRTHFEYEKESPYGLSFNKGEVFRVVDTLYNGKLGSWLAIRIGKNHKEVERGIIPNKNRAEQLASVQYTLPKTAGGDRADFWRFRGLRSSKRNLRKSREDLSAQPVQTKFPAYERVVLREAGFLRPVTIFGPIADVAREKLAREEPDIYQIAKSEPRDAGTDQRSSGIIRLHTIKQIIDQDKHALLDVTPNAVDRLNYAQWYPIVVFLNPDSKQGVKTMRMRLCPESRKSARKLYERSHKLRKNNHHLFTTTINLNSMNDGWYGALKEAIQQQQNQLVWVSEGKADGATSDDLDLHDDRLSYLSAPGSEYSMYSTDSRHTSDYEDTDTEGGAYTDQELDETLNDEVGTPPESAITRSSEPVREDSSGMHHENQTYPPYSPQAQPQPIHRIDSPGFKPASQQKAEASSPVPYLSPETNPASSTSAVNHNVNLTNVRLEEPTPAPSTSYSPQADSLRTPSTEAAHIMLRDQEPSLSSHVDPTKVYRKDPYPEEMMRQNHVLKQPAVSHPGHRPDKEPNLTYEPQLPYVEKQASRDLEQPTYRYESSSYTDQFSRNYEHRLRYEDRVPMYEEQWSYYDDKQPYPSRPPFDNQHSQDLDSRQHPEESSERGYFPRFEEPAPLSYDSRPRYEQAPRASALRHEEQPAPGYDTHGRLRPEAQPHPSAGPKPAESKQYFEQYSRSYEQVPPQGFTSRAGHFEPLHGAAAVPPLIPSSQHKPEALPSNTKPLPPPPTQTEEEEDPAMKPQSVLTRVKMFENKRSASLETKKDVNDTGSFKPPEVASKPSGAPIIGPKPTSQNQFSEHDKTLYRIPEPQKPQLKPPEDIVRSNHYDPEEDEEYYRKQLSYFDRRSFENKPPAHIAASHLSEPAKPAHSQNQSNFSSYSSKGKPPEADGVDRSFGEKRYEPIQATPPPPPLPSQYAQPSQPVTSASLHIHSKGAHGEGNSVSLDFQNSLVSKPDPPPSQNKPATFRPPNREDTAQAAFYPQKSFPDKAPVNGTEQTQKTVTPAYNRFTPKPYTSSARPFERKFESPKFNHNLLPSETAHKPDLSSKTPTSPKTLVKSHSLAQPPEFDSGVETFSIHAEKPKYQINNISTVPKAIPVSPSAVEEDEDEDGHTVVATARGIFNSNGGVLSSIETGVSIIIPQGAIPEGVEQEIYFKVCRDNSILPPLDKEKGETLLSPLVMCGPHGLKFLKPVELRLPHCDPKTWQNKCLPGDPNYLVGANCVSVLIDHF
# UniProt Q14160: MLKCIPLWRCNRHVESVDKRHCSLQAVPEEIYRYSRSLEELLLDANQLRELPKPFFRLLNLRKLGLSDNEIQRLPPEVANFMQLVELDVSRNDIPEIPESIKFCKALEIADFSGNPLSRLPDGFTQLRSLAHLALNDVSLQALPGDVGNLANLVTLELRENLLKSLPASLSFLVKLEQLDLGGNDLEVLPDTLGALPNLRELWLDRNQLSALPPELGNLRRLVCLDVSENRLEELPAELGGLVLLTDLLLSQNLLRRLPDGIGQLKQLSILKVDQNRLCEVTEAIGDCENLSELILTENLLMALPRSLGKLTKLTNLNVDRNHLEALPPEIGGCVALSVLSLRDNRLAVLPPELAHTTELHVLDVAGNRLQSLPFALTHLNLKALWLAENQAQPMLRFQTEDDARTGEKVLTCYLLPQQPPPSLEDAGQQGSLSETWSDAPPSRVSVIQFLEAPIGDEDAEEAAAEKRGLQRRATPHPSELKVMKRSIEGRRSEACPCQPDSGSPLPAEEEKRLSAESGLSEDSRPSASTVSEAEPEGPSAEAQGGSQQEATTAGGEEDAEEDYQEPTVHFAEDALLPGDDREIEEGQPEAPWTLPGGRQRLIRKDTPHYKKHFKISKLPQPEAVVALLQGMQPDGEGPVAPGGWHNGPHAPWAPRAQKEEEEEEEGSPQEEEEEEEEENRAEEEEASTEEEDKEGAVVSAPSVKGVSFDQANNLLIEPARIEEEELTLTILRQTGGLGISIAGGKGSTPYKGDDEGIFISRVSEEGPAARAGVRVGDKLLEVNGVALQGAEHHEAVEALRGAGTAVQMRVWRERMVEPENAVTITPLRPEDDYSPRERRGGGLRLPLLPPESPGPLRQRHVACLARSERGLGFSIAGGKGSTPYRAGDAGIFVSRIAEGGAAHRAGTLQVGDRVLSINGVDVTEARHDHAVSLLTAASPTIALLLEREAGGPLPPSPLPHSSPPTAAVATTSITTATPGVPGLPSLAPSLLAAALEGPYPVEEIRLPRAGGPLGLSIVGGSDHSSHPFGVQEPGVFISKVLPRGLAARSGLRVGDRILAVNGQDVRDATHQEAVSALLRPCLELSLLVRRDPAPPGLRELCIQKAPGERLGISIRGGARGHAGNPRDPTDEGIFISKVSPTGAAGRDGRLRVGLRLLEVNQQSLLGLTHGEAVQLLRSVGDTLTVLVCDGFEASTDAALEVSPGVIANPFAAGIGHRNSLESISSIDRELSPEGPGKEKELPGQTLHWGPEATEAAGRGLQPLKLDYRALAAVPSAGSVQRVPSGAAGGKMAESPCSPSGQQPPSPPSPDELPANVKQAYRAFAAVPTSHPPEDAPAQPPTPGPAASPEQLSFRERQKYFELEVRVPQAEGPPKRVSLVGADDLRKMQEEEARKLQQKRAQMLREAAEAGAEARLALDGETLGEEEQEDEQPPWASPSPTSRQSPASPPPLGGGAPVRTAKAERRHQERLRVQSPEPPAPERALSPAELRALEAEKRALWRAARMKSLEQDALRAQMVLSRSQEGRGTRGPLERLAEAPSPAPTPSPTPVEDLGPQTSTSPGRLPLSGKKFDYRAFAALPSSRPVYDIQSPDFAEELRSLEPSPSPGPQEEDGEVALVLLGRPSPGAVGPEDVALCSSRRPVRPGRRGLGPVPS
# These are yes or no findings as the source states them, for the method shown. In cells and extracts the contact can be indirect. Some binding calls cover weakened binding; strength is not graded here. For some of these results: Tags and fused reporters may be left off the sequences shown.
# B1: HA-ZO-2 (protein, UniProt Q9UDY2 1-1190)
# chain: MPVRGDRGFPPRRELSGWLRAPGMEELIWEQYTVTLQKDSKRGFGIAVSGGRDNPHFENGETSIVISDVLPGGPADGLLQENDRVVMVNGTPMEDVLHSFAVQQLRKSGKVAAIVVKRPRKVQVAALQASPPLDQDDRAFEVMDEFDGRSFRSGYSERSRLNSHGGRSRSWEDSPERGRPHERARSRERDLSRDRSRGRSLERGLDQDHARTRDRSRGRSLERGLDHDFGPSRDRDRDRSRGRSIDQDYERAYHRAYDPDYERAYSPEYRRGARHDARSRGPRSRSREHPHSRSPSPEPRGRPGPIGVLLMKSRANEEYGLRLGSQIFVKEMTRTGLATKDGNLHEGDIILKINGTVTENMSLTDARKLIEKSRGKLQLVVLRDSQQTLINIPSLNDSDSEIEDISEIESNRSFSPEERRHQYSDYDYHSSSEKLKERPSSREDTPSRLSRMGATPTPFKSTGDIAGTVVPETNKEPRYQEDPPAPQPKAAPRTFLRPSPEDEAIYGPNTKMVRFKKGDSVGLRLAGGNDVGIFVAGIQEGTSAEQEGLQEGDQILKVNTQDFRGLVREDAVLYLLEIPKGEMVTILAQSRADVYRDILACGRGDSFFIRSHFECEKETPQSLAFTRGEVFRVVDTLYDGKLGNWLAVRIGNELEKGLIPNKSRAEQMASVQNAQRDNAGDRADFWRMRGQRSGVKKNLRKSREDLTAVVSVSTKFPAYERVLLREAGFKRPVVLFGPIADIAMEKLANELPDWFQTAKTEPKDAGSEKSTGVVRLNTVRQIIEQDKHALLDVTPKAVDLLNYTQWFPIVIFFNPDSRQGVKTMRQRLNPTSNKSSRKLFDQANKLKKTCAHLFTATINLNSANDSWFGSLKDTIQHQQGEAVWVSEGKMEGMDDDPEDRMSYLTAMGADYLSCDSRLISDFEDTDGEGGAYTDNELDEPAEEPLVSSITRSSEPVQHEESIRKPSPEPRAQMRRAASSDQLRDNSPPPAFKPEPPKAKTQNKEESYDFSKSYEYKSNPSAVAGNETPGASTKGYPPPVAAKPTFGRSILKPSTPIPPQEGEEVGESSEEQDNAPKSVLGKVKIFEKMDHKARLQRMQELQEAQNARIEIAQKHPDIYAVPIKTHKPDPGTPQHTSSRPPEPQKAPSRPYQDTRGSYGSDAEEEEYRQQLSEHSKRGYYGQSARYRDTEL
# B2: in vitro translated, radiolabelled SNTB2 (protein, UniProt Q13425 1-540)
# chain: MRVAAATAAAGAGPAMAVWTRATKAGLVELLLRERWVRVVAELSGESLSLTGDAAAAELEPALGPAAAAFNGLPNGGGAGDSLPGSPSRGLGPPSPPAPPRGPAGEAGASPPVRRVRVVKQEAGGLGISIKGGRENRMPILISKIFPGLAADQSRALRLGDAILSVNGTDLRQATHDQAVQALKRAGKEVLLEVKFIREVTPYIKKPSLVSDLPWEGAAPQSPSFSGSEDSGSPKHQNSTKDRKIIPLKMCFAARNLSMPDLENRLIELHSPDSRNTLILRCKDTATAHSWFVAIHTNIMALLPQVLAELNAMLGATSTAGGSKEVKHIAWLAEQAKLDGGRQQWRPVLMAVTEKDLLLYDCMPWTRDAWASPCHSYPLVATRLVHSGSGCRSPSLGSDLTFATRTGSRQGIEMHLFRVETHRDLSSWTRILVQGCHAAAELIKEVSLGCMLNGQEVRLTIHYENGFTISRENGGSSSILYRYPFERLKMSADDGIRNLYLDFGGPEGELTMDLHSCPKPIVFVLHTFLSAKVTRMGLLV
# modifications: radiolabelled
# Experiments:
# [1] = molecular target: GST-E6 protein from HPV type 31 (Human papillomavirus type 31) (UniProt P17386); assay: pull-down; GST-E6 fusion proteins incubated with extract of 293 cells transfected with HA-ZO-1 or HA-ZO-2; extensive washing; western blot with anti-HA antibody; only the target purified
# [2] = molecular target: GST-E6 protein from HPV type 51 (Human papillomavirus type 51) (UniProt P26554); assay: as above
# [3] = molecular target: GST-HPV-16E6 (Human papillomavirus type 16) (UniProt P03126); assay: as above
# [4] = molecular target: GST-HPV-18-E6 (Human papillomavirus type 18) (UniProt P06463); assay: as above
# [5] = molecular target: GST-HPV-16E6 (Human papillomavirus type 16) (UniProt P03126); assay: pull-down; GST-E6 fusion proteins incubated with in vitro translated radiolabelled cellular protein (DLG1, hScrib or SNTB2); autoradiograph; only the target purified
# [6] = molecular target: GST-E6 protein from HPV type 31 (Human papillomavirus type 31) (UniProt P17386); assay: pull-down; GST-E6 fusion proteins incubated with extract of 293 cells transfected with HA-ZO-1 or HA-ZO-2; extensive washing; western blot with anti-HA antibody; only the target purified; remark: listed apart in the source
# [7] = molecular target: GST-E6 protein from HPV type 51 (Human papillomavirus type 51) (UniProt P26554); assay: as above; remark: listed apart in the source
# [8] = molecular target: GST-HPV-16E6 (Human papillomavirus type 16) (UniProt P03126); assay: as above; remark: listed apart in the source
# [9] = molecular target: GST-HPV-18-E6 (Human papillomavirus type 18) (UniProt P06463); assay: as above; remark: listed apart in the source
# [10] = molecular target: GST-E6 protein from HPV type 31 (Human papillomavirus type 31) (UniProt P17386); assay: pull-down; GST-E6 fusion proteins incubated with in vitro translated radiolabelled cellular protein (DLG1, hScrib or SNTB2); autoradiograph; only the target purified
# [11] = molecular target: GST-E6 protein from HPV type 51 (Human papillomavirus type 51) (UniProt P26554); assay: as above
# [12] = molecular target: GST-HPV-16E6 (Human papillomavirus type 16) (UniProt P03126); assay: as above; remark: listed apart in the source
# [13] = molecular target: GST-HPV-18-E6 (Human papillomavirus type 18) (UniProt P06463); assay: as above
molecule,measurement,setting,value
HA-ZO-1 (from UniProt Q07157 1-1748),binding,[1],no binding
same,binding,[2],no binding
same,binding,[3],no binding
same,binding,[4],no binding
in vitro translated radiolabelled hScrib (from UniProt Q14160 1-1655),binding,[5],binds
B1,binding,[6],binds
same,binding,[7],binds
same,binding,[8],binds
same,binding,[9],binds
B2,binding,[10],binds
same,binding,[11],binds
same,binding,[12],binds
same,binding,[13],binds
